# Data as given in the supplement of paper PMC11417369.
# ± gives the standard deviation of the averaged measurements. The list shows a part of the results.
# Tested on: PfAP2-I AP2 domain 3 (GST-tagged)
# Experiment: gcPBM binding intensity (ln(normalized median fluorescence intensity)); higher = stronger DNA binding
# Outline: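 An Agilent 4 × 180k array of primer-extended double-stranded 36-bp intergenic genomic probes, with negative controls, was incubated for 1 h with GST-tagged P. falciparum DNA-binding domains expressed in E. coli. Alexa488 anti-GST antibody detected bound protein, scanned at 488 nm. Binding intensity is the highest Masliner-normalised natural-log median intensity across replicate spots of either probe orientation.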
row,Sequence,gcPBM binding intensity (ln)
1,AAACAAAATGGTAACACACACATATATATATATATA [CACACA_site1939],9.55 ± 0.49
2,AGGTCATACATAAAATGTACATATATATAAATATAT [XGTACX_site7147],7.62 ± 0.4
3,TGAACACCCAAATACACACACTCAAAAAAAAAAAAG [CACACA_site5467],7.79 ± 0.37
4,ACAAGAATACACCACGCACACACACTAGAGAAAAAA [CACACA_site9276],8.39 ± 0.28
5,TAATAAAGTATTTTGCGTACTTATTTTATTCTTCTA [XGTACX_site2095],7.665 ± 0.035
6,ATTGTGTGAACAAAATGTACATTTTCTCTACATTAA [XGTACX_site1333],7.91 ± 0.41
7,TGGCATATATATAAATGTACTTTCTTTCTATCTGTT [XGTACX_site8483],7.51 ± 0.52
8,GCCCCCAAATTATGTGTGCACTTTATATTCCTGAGA [GTGCAC_site9474],10.4 ± 0.23
9,TTATATATATGTAATTGTACTTTTAATTTTTTTTTA [XGTACX_site4357],7.68 ± 0.42
10,TATTTTATAATAGGCACACATATAAAAATATATATA [CACACA_site4127],7.96 ± 0.52
11,TAATTTTTTTTAAATACACACTGAAATGTGAATTTT [CACACA_site4476],7.5 ± 0.47
12,AATTTCAAATTGTATGTGCACATGTAGAAGTACTTT,9.71 ± 0.28
13,GTGCCTTTAAAAAAAAGTACAAAAAAGAACGAATTA [XGTACX_site3714],9.22 ± 0.29
14,AAAAAAAAAAAAAGCACACACACATATGAGTATATA [CACACA_site4682],8.34 ± 0.35
15,TATATATATATATATTGTACATTTTTTTTTTTTTTT [XGTACX_site7891],9.45 ± 0.37
16,TATGTAAAGAGTAAGGGTACATGTATAATACGGCTC [XGTACX_site1283],8.28 ± 0.9
17,TTTTCATTAAATATATATGCATACCATATGTACATT [GTGCAC_negctrl_site539],8.05 ± 0.58
18,TTTAAAATATTTTCTTGTACGAAGGAACATTTCTTA [XGTACX_site4013],7.67 ± 0.32
19,AAATACTATATCAAGCGTACTTATTTCATGGTAATA [XGTACX_site7878],7.61 ± 0.51
20,TATTTAATTACATGAACACACATTATGTATTTTTAA [CACACA_site2962],7.49 ± 0.52
21,TAAAAAAAAAAAACAAGTACATATATAAATATATAT [XGTACX_site7537],7.5 ± 0.45
22,TTTTTATTTAATAATATATTAATCATATAAATAAAT [GTGCAC_negctrl_site210],7.6 ± 0.54
23,TATATTCTTATTATTGCATGCTGCACGAAGATTTTC [TGCATGCA_site831],9.32 ± 0.2

row,Sequence,gcPBM binding intensity (ln)
1,ATAATAAATAAAATAACACACATATATAGATATATA [CACACA_site6224],7.53 ± 0.3
2,TTTATATAAAAAAATTGTACATATTTATTATAAACA [XGTACX_site2124],7.58 ± 0.27
3,TGTATGCATATTTGATGTACGCACATATACTAATTT [XGTACX_site3159],8.43 ± 0.38
4,TTTAATTATAAGATAACACACAAAAAAAATAAAATA [CACACA_site254],7.96 ± 0.63
5,GTATGTTTGTTATGCACACAAATGCATCTTATTTCC [CACACA_site2690],10.2 ± 0.16
6,ATTTCTCTATAGTAATGTACAAAAAAAAGGAAAAAG [XGTACX_site2757],7.84 ± 0.49
7,CAAGAATAAAAATACAAGCACACATGTATGAAATAT [CACACA_site3214],7.88 ± 0.81
8,ACATAAAATAAATATACACACATATGTATTTATTAT [CACACA_site5648],7.62 ± 0.53
9,AAACCGAATTTACATGAATGTAAATTATGTTGTTTT [CACACA_negctrl_site1834],7.2 ± 0.65
10,TTATGGATAAATAAATGTACGTTAAGATAACACAAA [XGTACX_site4208],7.59 ± 0.38
11,ATATACATATGTGTGTGTACTTATATCACATTTTTG [XGTACX_site3785],7.88 ± 0.71
12,GTTTTTTTGTTTTAGTGTACCTAAAACTGCATGTAG [XGTACX_site294],8.47 ± 0.64
13,TCGACAAAGGCATATACACACATTTGTAACATAAAT [CACACA_site4471],7.57 ± 0.46
14,GCAGGATTGGTTCAAACACACATATTATATGACTAT [CACACA_site660],7.79 ± 0.69
15,TTTTTTTTTTTTTTTGCACACACATAATAGGTACAA [CACACA_site3578],9.43 ± 0.23
16,ATCTTATATGATCACACACACACGCACAAAACAGAA [CACACA_site4913],8.54 ± 0.57
17,TTAATAAATAAAAATGCACACAGTTAACATGTTGAA [CACACA_site1200],8.57 ± 0.29
18,GCACATAAATATATGACACACACACCGATTATATAT [CACACA_site9003],7.92 ± 0.61
19,AAAAAAAAAAAAAAAACACACAAACATCAAATTATT [CACACA_site5083],8.65 ± 0.42
20,ATAATAATTTAATACATACACACGTATATCTTTTTT [CACACA_site2041],7.67 ± 0.83
21,ATACAAAAAGTAAAAAGTACTTAACTAAATATATAA [XGTACX_site2335],7.61 ± 0.56
22,TTTTCAATATATTAATGTACGAATACGCAAATAAGA [XGTACX_site1613],8.15 ± 0.35
23,TGTGTTCATCTATGCACACGCATATATATTATTGTT [CACACA_site5985],8.8 ± 0.057

row,Sequence,gcPBM binding intensity (ln)
1,TAATCGAAACAAAGAACATGCAAACATATACCTATA [TGCATGCA_site894],7.51 ± 0.54
2,CAAAATTTATGTAAAAGTACAAAAATATAGAAAGAT [XGTACX_site1122],8.14 ± 0.59
3,AATATAATATAAGGATCACACACAAACACCCATATA [CACACA_site8084],8.12 ± 0.18
4,TTTTATTCCTTCTTTGCACACGTTTAAAAATATATA [CACACA_site2899],9.795 ± 0.007
5,TAAGTTATATGTATATGTACTTATATATATATATAT [XGTACX_site5402],9.16 ± 0.76
6,ATTAAAAAAATTAAAAGTACACATATTTCAATGATA [XGTACX_site5606],7.86 ± 0.32
7,AAAATTAAAAAGAACACACAAATATATCTATAATAA [CACACA_site7660],7.47 ± 0.65
8,TAAAAAAAAAAAAAAACACACATATAAATATATATA [CACACA_site1243],7.86 ± 0.53
9,TTTATATATATATATATATATAATAAATGATACACA [TGCATGCA_negctrl_site392],7.88 ± 0.42
10,TATTTTTTTTCTTATACACACCATGCATCAAACTAA [CACACA_site5208],8.37 ± 0.59
11,TTTGCACCGTTTAAGTGTACAGAATTATGACATATA [XGTACX_site6735],8.73 ± 0.099
12,TCAAAAATATTCTGGAGTACCTTTTTAAAGGTATAG [XGTACX_site6893],7.43 ± 0.51
13,ATTGCATATAATGGCACACATAAATCCATAATATAT [CACACA_site297],8.36 ± 0.29
14,TGTGGTTACATGTGCACACACTTATTTCGTTCTTAT [CACACA_site4907],9.75 ± 0.14
15,TAAATATATATATACACACACATACACAAAAAAAAA [CACACA_site3580],8.02 ± 0.42
16,TATACATACCATAATGCATGTAAGAACAAATAACTG [TGCATGCA_site264],7.83 ± 0.6
17,AAAAAAAAAAAAAAGGTGCATACTTTGAATTAATAT [GTGCAC_site9401],9.87 ± 0.17
18,ATGACTCTCAAGTTTGCACACATTTATATTTTTTAA [CACACA_site2605],9.09 ± 0.22
19,AATATAAATAATATATGTACATATATATATATATAT [XGTACX_site1021],9.01 ± 0.69
20,AAAGTATTCTTTACACGTACATATATATAAATATAA [XGTACX_site7557],7.92 ± 0.54
21,AATATAGATATAAAAAGTACATTATATATATATATA [XGTACX_site6899],9.4 ± 0.3
22,AGAATTGTTGTTAAAGAATTCTTTTTTATCCTTCCC [CACACA_negctrl_site1820],7.61 ± 0.37
23,TTTGTATATATTAATGTACACACATGCGTATGTTCG [CACACA_site9193],7.71 ± 0.52

row,Sequence,gcPBM binding intensity (ln)
1,ATAATACTACCTACATGTACTTATATATAAATGAAT [XGTACX_site3417],8.11 ± 0.47
2,GTTTTAACAAAATTAGTGCATTTATCAATTATATAA,10.5 ± 0.14
3,TTTTTTTTTTCAATGGCACACATTTTAGATTTATGC [CACACA_site1074],8.24 ± 0.67
4,ACATCAAGCGGACACACACACACACCGACAGACACA [CACACA_site4361],8.16 ± 0.46
5,AAAGAATCAAGAATAGTGCAAATATGTATAACCTTT,10.39 ± 0.078
6,ATAAAATAATGAAAAACACACATTTTTATTTGTATA [CACACA_site3369],7.34 ± 0.54
7,ATATATATATATGAATCACACACAAAAAATATAGAG [CACACA_site9298],9.24 ± 0.21
8,AAGATTATAAATATATGTACATAAATATATTATATA [XGTACX_site8056],7.6 ± 0.28
9,ATTGTTTTTTTTTCTTTGTGGAATGAATGAATATAT [XGTACX_negctrl_site603],7.91 ± 0.59
10,AATAACATGTTATATACACACATTATGAAGTCTTCA [CACACA_site746],7.46 ± 0.71
11,TATATATATAAACACACACACATATATATATATATA [CACACA_site4584],9.28 ± 0.42
12,AAAAAAAAAAAATGCACACATATATTTCCATATACA [CACACA_site1471],8.975 ± 0.021
13,ATATATATATATATATGTACTAATTAATATTTCGAG [XGTACX_site580],9.45 ± 0.49
14,ACAAAATTTACAAAATGTACAAAATTTACAAAGTAT [XGTACX_site6463],7.54 ± 0.56
15,GTATATCATATTTCATGTACACAAAAAAATAAAAAT [XGTACX_site704],8.2 ± 0.33
16,ATATATTTGATAAGAGTGCACAAATACATACATACA [GTGCAC_site9704],10.94 ± 0.071
17,TATATATATTATATATGTACATATTATATATATATA [XGTACX_site7300],8.81 ± 0.22
18,AAAAATACAATTTTCTTGCACTTTGTTGCATTGTAA,9.79 ± 0.32
19,AACATATACACGAACACACACACATATAAATAAATA [CACACA_site6380],8.07 ± 0.36
20,CAAAATATAAAAACATGTACATAAATATTAACGAAT [XGTACX_site2380],8.05 ± 0.8
21,ATATGTTTATTAAATGCATGTCAAGACTTAAGATAT [TGCATGCA_site329],7.89 ± 0.64
